Assay results published in US20210015895A1 (PROCLARA BIOSCIENCES, published 2021).
Changes are numbered by the printed parent chain. Names and notes keep the numbering of the source.

B1: N1-N2-human IgG Fc fusion protein of SEQ ID NO:2 with M135N (Fc fusion)
chain: AETVESCLAKPHTENSFTNVWKDDKTLDRYANYEGCLWNATGVVVCTGDETQCYGTWVPIGLAIPENEGGGSEGGGSEGGGSEGGGTKPPEYGDTPIPGYTYINPLDGTYPPGTEQNPANPNPSLEESQPLNTFNFQNNRFRNRQGALTVYTGTFTQGTDPVKTYYQYTPVSSKAMYDAYWNGKFRDCAFHSGFNEDPFVCEYQGQSSDLPQPPANAGGESGGGSGGGSEGGGSEGGGSEGGGSEGGGSGGGSGSGARS[human IgG1 Fc not printed]
B2: N1-N2-human IgG Fc fusion protein of SEQ ID NO:2 with T51R (Fc fusion)
chain: B1 chain with T51R, N135M
B3: Polypeptide No. 67 (Fc fusion)
chain: B1 chain with Y54R, N135T
B4: Polypeptide No. 82 (Fc fusion)
chain: B1 chain with Y54R, N135M, K174R
B5: N1-N2-human IgG Fc fusion protein of SEQ ID NO:2 with M135R (Fc fusion)
chain: B1 chain with N135R
B6: N1-N2-human IgG Fc fusion protein of SEQ ID NO:2 with R140D (Fc fusion)
chain: B1 chain with N135M, R140D
B7: N1-N2-human IgG Fc fusion protein of SEQ ID NO:2 with W181K (Fc fusion)
chain: B1 chain with N135M, W181K
B8: N1-N2-human IgG Fc fusion protein of SEQ ID NO:2 with W181G (Fc fusion)
chain: B1 chain with N135M, W181G
B9: N1-N2-human IgG Fc fusion protein of SEQ ID NO:2 with R140G (Fc fusion)
chain: B1 chain with N135M, R140G
B10: N1-N2-human IgG Fc fusion protein of SEQ ID NO:2 with T51G (Fc fusion)
chain: B1 chain with T51G, N135M
B11: Polypeptide No. 76 (Fc fusion)
chain: B1 chain with Y54K, N135M, W181H
B12: Polypeptide No. 64 (Fc fusion)
chain: B1 chain with Y54K, N135T
B13: N1-N2-human IgG Fc fusion protein of SEQ ID NO:2 with M176K (Fc fusion)
chain: B1 chain with N135M, M176K
B14: Polypeptide No. 63 (Fc fusion)
chain: B1 chain with Y54K, N135K
B15: Polypeptide No. 71 (Fc fusion)
chain: B1 chain with T56H, N135M, R140Q
B16: N1-N2-human IgG Fc fusion protein of SEQ ID NO:2 with T51N (Fc fusion)
chain: B1 chain with T51N, N135M
B17: Polypeptide No. 81 (Fc fusion)
chain: B1 chain with Y54R, N135M, W181R
B18: Polypeptide No. 92 (Fc fusion)
chain: B1 chain with N135K, W181H
B19: N1-N2-human IgG Fc fusion protein of SEQ ID NO:2 with R140A (Fc fusion)
chain: B1 chain with N135M, R140A
B20: N1-N2-human IgG Fc fusion protein of SEQ ID NO:2 with T56R (Fc fusion)
chain: B1 chain with T56R, N135M
B21: N1-N2-human IgG Fc fusion protein of SEQ ID NO:2 with R140H (Fc fusion)
chain: B1 chain with N135M, R140H
B22: N1-N2-human IgG Fc fusion protein of SEQ ID NO:2 with R140E (Fc fusion)
chain: B1 chain with N135M, R140E
B23: Polypeptide No. 79 (Fc fusion)
chain: B1 chain with Y54R, N135M, D178N
B24: N1-N2-human IgG Fc fusion protein of SEQ ID NO:2 with T51H (Fc fusion)
chain: B1 chain with T51H, N135M
B25: Polypeptide No. 80 (Fc fusion)
chain: B1 chain with Y54R, N135M, W181H
B26: Polypeptide No. 65 (Fc fusion)
chain: B1 chain with Y54K, N135M, R140Q
B27: N1-N2-human IgG Fc fusion protein of SEQ ID NO:2 with Y54H (Fc fusion)
chain: B1 chain with Y54H, N135M
B28: Polypeptide No. 91 (Fc fusion)
chain: B1 chain with N135K, D178N
B29: N1-N2-human IgG Fc fusion protein of SEQ ID NO:2 with M176N (Fc fusion)
chain: B1 chain with N135M, M176N
B30: Polypeptide No. 68 (Fc fusion)
chain: B1 chain with Y54R, N135M, R140Q
B31: N1-N2-human IgG Fc fusion protein of SEQ ID NO:2 with Y54P (Fc fusion)
chain: B1 chain with Y54P, N135M
B32: N1-N2-human IgG Fc fusion protein of SEQ ID NO:2 with S173P (Fc fusion)
chain: B1 chain with N135M, S173P
B33: Polypeptide No. 66 (Fc fusion)
chain: B1 chain with Y54R, N135K
B34: N1-N2-human IgG Fc fusion protein of SEQ ID NO:2 with T51Q (Fc fusion)
chain: B1 chain with T51Q, N135M
B35: N1-N2-human IgG Fc fusion protein of SEQ ID NO:2 with T51K (Fc fusion)
chain: B1 chain with T51K, N135M
B36: N1-N2-human IgG Fc fusion protein of SEQ ID NO:2 with M176H (Fc fusion)
chain: B1 chain with N135M, M176H
B37: N1-N2-human IgG Fc fusion protein of SEQ ID NO:2 with M176G (Fc fusion)
chain: B1 chain with N135M, M176G
B38: N1-N2-human IgG Fc fusion protein of SEQ ID NO:2 with M176R (Fc fusion)
chain: B1 chain with N135M, M176R
B39: Polypeptide No. 74 (Fc fusion)
chain: B1 chain with T56K, N135M, R140Q
B40: N1-N2-human IgG Fc fusion protein of SEQ ID NO:2 with T51P (Fc fusion)
chain: B1 chain with T51P, N135M
B41: N1-N2-human IgG Fc fusion protein of SEQ ID NO:2 with T56G (Fc fusion)
chain: B1 chain with T56G, N135M
B42: N1-N2-human IgG Fc fusion protein of SEQ ID NO:2 with S173G (Fc fusion)
chain: B1 chain with N135M, S173G
B43: Polypeptide No. 75 (Fc fusion)
chain: B1 chain with Y54K, N135M, D178N

Tests used:
[1] = target: T1, Aβ42 fibers (UniProt P05067 fragment); assay: ELISA on coated Aβ42 fibers; IC50(variant)/IC50(SEQ ID NO:2)
T1 construct: domain: Aβ42; Fibrillar aggregate dry-coated on ELISA plates; number of chains in a fiber not defined; also called ABeta; Abeta
Experimental: (§1) To each well of a 96-well plate (F96 MAXISORP NUNC-IMMUNO PLATE; Catalog number: 442404, Lot 125436 and 128158; Denmark) was added 200 μL of a 1% BSA solution. The plates were sealed and incubated at 7° C. for 3 hr. Plates were then washed with PBS (250 μL/well)×3. We added 50 μL of the diluted Aβ42 fiber solution (1.6 μM) to each well and incubated uncovered at 37° C. overnight to complete dryness. PBS (50 μl/well) is added to control wells (without Aβ42 fibers). Plates were then washed 2× with water and 1× with PBS (250 μL/well for each washing).
(§2) Varying concentrations of each polypeptide (as well as the polypeptide of SEQ ID NO:2) in 50 μL were added to each well, as well as to non-Aβ42 fiber coated wells and incubated for 1 h at 37° C. Plates were then washed 3× with PBS-T (0.05% Tween 20 in PBS) and 3× with PBS (250 μL/well for each washing). We then added 50 μl of HRP-conjugated Goat anti-Human anti Fcγ (Jackson Labs, Catalog number, 109-035-008, Lot number: 106617) diluted 1:2500 (0.32 μg/mL final) in PBS-T+1% Milk (Difco™ Skim Milk, Becton, Dickinson and Company. USA, Catalog number: 232100, Lot number: 7320448) to each well and incubated for 40 min at 37° C. Plates were then washed 6× with PBS-T and 2× with PBS (250 μL/well for each washing). We then added 50 μl/well OPD solution (5 mg/7.5 ml 0.05 M Citrate buffer pH-5.513 μl H₂O₂) and let color to develop for 3-6 min. We next added 25 μl/well of 4N HCl solution to stop reaction. Plates were read for absorbance at 492 nm and 405 nm. The 405 nm absorbance was subtracted from the 492 nm absorbance and the results plotted as a function of polypeptide concentrations. An IC₅₀ for binding for each deimmunized polypeptide was then calculated and compared to the IC₅₀ calculated for the polypeptide of SEQ ID NO:2.

[2] = target: T1, Aβ42 fibers; assay: ELISA on coated Aβ42 fibers; IC50 ratio to SEQ ID NO:2
Experimental: as §1, §2
The above-indicated polypeptides were assayed for binding to beta-amyloid using the ELISA assay set forth in Example 5. Relative binding values reflect IC₅₀ (polypeptide of SEQ ID NO:2)/IC₅₀ (tested polypeptide) (e.g., the lower the value the greater the binding of the polypeptide as compared to a polypeptide of SEQ ID NO:2). Multiple values reflect duplicate testing in the binding assay.

T1 sequence (P05067 672-713 limits assumed): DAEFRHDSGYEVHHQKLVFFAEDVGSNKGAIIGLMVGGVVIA

Binder	IC50 relative to SEQ ID NO: 2 [1]	Relative Binding Value [2]
B1	0.3 ratio	
B2	2 ratio	
B3		0.1 ratio
B4		0.2 ratio
B5	0.1 ratio	
B6	0.3 ratio	
B7	0.3 ratio	
B8	0.5 ratio	
B9	0.2 ratio	
B10	0.8 ratio	
B11		0.13 ratio
B12		0.14 ratio
B13	0.2 ratio	
B14		0.12 ratio
B15		0.42 ratio
B16	0.5 ratio	
B17		0.14 ratio
B18		0.24 ratio
B19	0.2 ratio	
B20	0.8 ratio	
B21	0.2 ratio	
B22	0.3 ratio	

Binder	IC50 relative to SEQ ID NO: 2 [1]	Relative Binding Value [2]
B23		0.08 ratio
B24	1.5 ratio	
B25		0.16 ratio
B26		0.18 ratio
B27	0.3 ratio	
B28		0.14 ratio
B29	0.5 ratio	
B30		0.19 ratio
B31	0.07 ratio	
B32	0.4 ratio	
B33		0.08 ratio
B34	0.8 ratio	
B35	2.5 ratio	
B36	0.4 ratio	
B37	0.3 ratio	
B38	0.2 ratio	
B39		0.26 ratio
B40	0.2 ratio	
B41	0.1 ratio	
B42	0.2 ratio	
B43		0.11 ratio
